The target of the assay is T1, human RSPO3 (recombinant, R&D Systems) (human, UniProt Q9BXY4 22-272).
T1 sequence: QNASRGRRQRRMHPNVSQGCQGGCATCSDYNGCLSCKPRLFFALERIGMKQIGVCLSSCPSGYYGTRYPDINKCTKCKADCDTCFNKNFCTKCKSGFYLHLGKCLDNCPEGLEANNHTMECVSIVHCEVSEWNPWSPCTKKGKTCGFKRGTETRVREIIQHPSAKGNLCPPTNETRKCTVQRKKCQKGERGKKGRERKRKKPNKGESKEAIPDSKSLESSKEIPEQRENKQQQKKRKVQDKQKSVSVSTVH
Briefly: SPR (Biacore 2000), antibody captured by goat anti-human IgG on CM5 chip, human RSPO3 injected 300-37.5 nM. The protocol:
The method used was different than described in Example 3. A goat anti-human IgG antibody was coupled to a carboxymethyl-dextran (CM5) SPR chip using standard amine-based chemistry (NHS/EDC) and blocked with ethanolamine. Antibodies (purified antibody or culture supernatant) were diluted to a concentration of 10 μg/ml in HBS-P-BSA (0.01M HEPES pH7.4, 0.15M NaCl, 0.005% v/v Polysorbate 20, 100 μg/ml BSA) and captured onto the chip via the anti-human IgG antibody. […] After each antigen injection 5 μl of 100 mM H₃PO₄ was injected to remove the antigen-antibody complex and a subsequent injection performed. Kinetic data were collected over time and were fit using the simultaneous global fit equation to yield affinity constants (KD values) for each antibody (Table 4).
For orientation: Surface plasmon resonance follows binding to a sensor surface in real time, without labels.

The results in this text go back to patent US20140017253A1 (ONCOMED PHARMACEUTICALS, published 2014).

B1: humanized anti-RSPO3 antibody h131R008 (antibody, human IgG1, kappa)
heavy: QVQLVQSGAEVKKPGASVKVSCKASGYTFTDYSIHWVRQAPGQGLEWIGYIYPSNGDSGYNQKFKNRVTMTRDTSTSTAYMELSRLRSEDTAVYYCATYFANNFDYWGQGTTLTVSSASTKGPSVFPLAPSSKSTSGGTAALGCLVKDYFPEPVTVSWNSGALTSGVHTFPAVLQSSGLYSLSSVVTVPSSSLGTQTYICNVNHKPSNTKVDKRV[… human IgG1 Fc …]
light: DIVLTQSPASLAVSLGQRATITCKASQSVDYDGDSYMNWYQQKPGQPPKLLIYAASNLESGIPARFSGSGSGTDFTLTINPVEAEDVATYYCQQSNEDPLTFGAGTKLELKRTVAAPSVFIFPPSDEQLKSGTASVVCLLNNFYPREAKVQWKVDNALQSGNSQESVTEQDSKDSTYSLSSTLTLSKADYEKHKVYACEVTHQGLSSPVTKSFNRGEC
notes: IgG1; also called h131R008 (IgG1)
As usually defined, the Kd is the constant that tells how readily two partners part at equilibrium. Regarding B1, the Kd was 0.876 nM.
